Source: the supplement of paper PMC9046079
Counter-ions that a name gives are not always drawn. ± gives the standard deviation of the averaged measurements. This is one part of the list.

Columns and labels:
[1] = test system: murine small intestinal organoids (ENR+CD Paneth differentiation); assay: cellular ATP (CellTiter-Glo 3D) relative to plate median (log10 fold change); higher = more viable cells; conditions: 6 d
[2] = test system: murine small intestinal organoids (ENR+CD Paneth differentiation); assay: carbachol-stimulated secreted lysozyme activity relative to plate median (log10 fold change); higher = more Paneth cell lysozyme secretion; conditions: 6 d, carbachol 10 µM
[3] = test system: murine small intestinal organoids (ENR+CD Paneth differentiation); assay: basal (non-stimulated) secreted lysozyme activity relative to plate median (log10 fold change); higher = more Paneth cell lysozyme secretion; conditions: 6 d
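Throughout, for basal (non-stimulated) secreted lysozyme activity relative to plate median: ISC-enriched organoid precursors grown as 2.5D pseudo-monolayer on Matrigel, compound given on day 0 and day 3, plate values LOESS-normalized before median fold change, three murine donors.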
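Throughout, for cellular ATP (CellTiter-Glo 3D) relative to plate median: 2.5D pseudo-monolayer culture of ISC-enriched organoids partly embedded atop Matrigel, compound added on day 0 and again on day 3, per-plate LOESS correction before median fold change.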

Row | Compound | cellular ATP (log10) ([1]; 0.08 µM) | cellular ATP (log10) ([1]; 0.4 µM) | cellular ATP (log10) ([1]; 2 µM) | cellular ATP (log10) ([1]; 10 µM) | carbachol-stimulated secreted lysozyme activity (log10) ([2]; 0.08 µM) | carbachol-stimulated secreted lysozyme activity (log10) ([2]; 0.4 µM) | carbachol-stimulated secreted lysozyme activity (log10) ([2]; 2 µM) | carbachol-stimulated secreted lysozyme activity (log10) ([2]; 10 µM) | basal (log10) ([3]; 0.08 µM) | basal (log10) ([3]; 0.4 µM) | basal (log10) ([3]; 2 µM) | basal (log10) ([3]; 10 µM)
1 | CN[C@@H](C)C(=O)N[C@H](C(=O)N1CCC[C@H]1C(=O)Nc1snnc1-c1ccccc1)C1CCCCC1 | 0.151 ± 0.21 | 0.158 ± 0.13 | 0.00315 ± 0.2 | 0.241 ± 0.21 | 0.0117 ± 0.04 | -0.0335 ± 0.078 | -0.0683 ± 0.031 | -0.0221 ± 0.053 | -0.00154 ± 0.031 | -0.0202 ± 0.045 | 0.0832 ± 0.17 | 0.103 ± 0.085
2 | CCN(CC)C(=O)/C(C#N)=C/c1cc(O)c(O)c([N+](=O)[O-])c1 [Entacapone] | -0.115 ± 0.26 | -0.0646 ± 0.5 | 0.206 ± 0.072 | -0.391 ± 0.099 | 0.0808 ± 0.18 | 0.0859 ± 0.12 | 0.063 ± 0.091 | 0.0924 ± 0.034 | 0.136 ± 0.1 | 0.0117 ± 0.11 | 0.0855 ± 0.047 | 0.0999 ± 0.15
3 | O=C(O)C(Cc1ccccc1[N+](=O)[O-])=NNc1nc(-c2ccc(Cl)c(Cl)c2)cs1 | -0.16 ± 0.29 | -0.131 ± 0.63 | 0.127 ± 0.13 | -0.109 ± 0.23 | -0.0575 ± 0.023 | 0.103 ± 0.0066 | -0.0707 ± 0.14 | 0.0902 ± 0.29 | 0.11 ± 0.22 | 0.0362 ± 0.078 | 0.0686 ± 0.2 | -0.0344 ± 0.075
4 | CNCc1ccc(-c2cc(-c3nc(-c4ccc(S(=O)(=O)C(C)C)cc4)cnc3N)on2)cc1 | -0.802 ± 1.1 | -0.24 ± 0.62 | -0.244 ± 0.48 | -1.08 ± 1.3 | -0.137 ± 0.39 | -0.031 ± 0.26 | -0.0805 ± 0.42 | -0.247 ± 0.33 | -0.0631 ± 0.19 | -0.013 ± 0.1 | -0.0604 ± 0.21 | -0.137 ± 0.15
5 | C=C1C(=O)O[C@H]2[C@H]1CC/C(C)=C/CC[C@@]1(C)O[C@@H]21 [(-)-Parthenolide] | 0.135 ± 0.043 | 0.228 ± 0.13 | 0.157 ± 0.15 | 0.157 ± 0.44 | 0.0771 ± 0.089 | 0.166 ± 0.2 | 0.0532 ± 0.024 | -0.00902 ± 0.031 | 0.0581 ± 0.012 | 0.0669 ± 0.081 | 0.0891 ± 0.013 | 0.133 ± 0.074
6 | CC(NC(=O)c1ccccc1/N=C/c1c(O)ccc2ccccc12)c1ccccc1 (stereo not drawn) [Sirtinol] | -0.164 ± 0.25 | 0.0067 ± 0.013 | -0.0961 ± 0.14 | -0.0377 ± 0.064 | 0.0284 ± 0.042 | 0.0568 ± 0.16 | -0.0167 ± 0.14 | 0.209 ± 0.26 | 0.109 ± 0.041 | 0.0647 ± 0.17 | 0.0326 ± 0.1 | 0.0404 ± 0.038
7 | CCOC(=O)N1CCC(=C2c3ccc(Cl)cc3CCc3cccnc32)CC1 [Loratadine] | -0.292 ± 0.27 | 0.145 ± 0.048 | -0.204 ± 0.16 | -0.12 ± 0.16 | -0.0687 ± 0.064 | 0.0113 ± 0.0097 | -0.189 ± 0.11 | -0.125 ± 0.044 | 0.0107 ± 0.042 | -0.000548 ± 0.072 | -0.108 ± 0.079 | -0.101 ± 0.032
8 | COc1ccccc1Oc1c(NS(=O)(=O)c2ccc(C(C)(C)C)cc2)nc(-c2ncccn2)nc1OCCO [Bosentan Hydrate] | 0.204 ± 0.19 | 0.207 ± 0.15 | 0.121 ± 0.093 | 0.0853 ± 0.13 | 0.164 ± 0.24 | 0.0561 ± 0.23 | 0.00296 ± 0.13 | 0.0681 ± 0.13 | 0.0901 ± 0.12 | 0.0677 ± 0.15 | 0.0387 ± 0.11 | 0.0583 ± 0.11
9 | C#CCC(Cc1cnc2nc(N)nc(N)c2n1)c1ccc(C(=O)N[C@@H](CCC(=O)O)C(=O)O)cc1 (stereo partly drawn) [Pralatrexate] | -0.682 ± 0.65 | -0.568 ± 0.7 | -0.41 ± 0.49 | -0.709 ± 0.48 | -0.267 ± 0.065 | -0.0995 ± 0.15 | 0.049 ± 0.39 | -0.161 ± 0.21 | -0.143 ± 0.085 | -0.0915 ± 0.082 | -0.0747 ± 0.063 | -0.0728 ± 0.057
10 | CC(C(O)c1ccc(O)cc1)N1CCC(Cc2ccccc2)CC1 (stereo not drawn) [Ifenprodil Tartrate] | 0.102 ± 0.31 | 0.111 ± 0.24 | -0.00333 ± 0.21 | -1.03 ± 0.61 | 0.0154 ± 0.14 | -0.0424 ± 0.007 | -0.0911 ± 0.13 | -0.333 ± 0.28 | 0.0565 ± 0.094 | -0.0185 ± 0.1 | 0.123 ± 0.18 | -0.219 ± 0.13
11 | CCc1cccc2c3c([nH]c12)C(CC)(CC(=O)O)OCC3 (stereo not drawn) [Etodolac] | -0.0613 ± 0.028 | 0.0492 ± 0.065 | 0.00824 ± 0.12 | 0.0228 ± 0.051 | 0.0691 ± 0.03 | 0.177 ± 0.19 | 0.123 ± 0.043 | -0.0224 ± 0.12 | 0.046 ± 0.081 | 0.0361 ± 0.093 | 0.0519 ± 0.1 | -0.00893 ± 0.054
12 | Oc1cc(O)cc(/C=C/c2ccc(O)c(O)c2)c1 [Piceatannol] | 0.232 ± 0.17 | -0.0905 ± 0.17 | 0.0741 ± 0.39 | -0.071 ± 0.4 | -0.0254 ± 0.0018 | 0.046 ± 0.082 | -0.0908 ± 0.19 | -0.176 ± 0.15 | 0.0802 ± 0.11 | 0.0431 ± 0.084 | 0.0253 ± 0.14 | -0.0211 ± 0.12
13 | CCc1cc(Nc2nccc(-c3c(-c4ccc(OC)c(C(=O)Nc5c(F)cccc5F)c4)nc4ccccn34)n2)c(OC)cc1N1CCC(N2CCN(S(C)(=O)=O)CC2)CC1 | 0.202 ± 0.21 | -0.0713 ± 0.3 | -0.57 ± 0.43 | -0.691 ± 0.15 | 0.113 ± 0.026 | 0.00503 ± 0.045 | -0.287 ± 0.11 | -0.331 ± 0.044 | 0.102 ± 0.038 | 0.112 ± 0.25 | -0.179 ± 0.045 | -0.163 ± 0.085
14 | CCCCCCCCCCCCCCCCn1cc[n+](Cc2ccccc2)c1C | -0.347 ± 0.42 | -0.508 ± 0.37 | -1.11 ± 0.3 | -1.79 ± 0.87 | -0.113 ± 0.1 | -0.284 ± 0.17 | -0.445 ± 0.04 | -0.502 ± 0.041 | -0.0345 ± 0.057 | -0.188 ± 0.07 | -0.219 ± 0.091 | -0.263 ± 0.17
15 | Nc1nc(OCc2cc(Br)cs2)c2[nH]cnc2n1 [Lomeguatrib] | -0.426 ± 0.66 | -0.309 ± 0.55 | 0.0745 ± 0.22 | -0.0803 ± 0.26 | -0.0345 ± 0.1 | 0.0249 ± 0.079 | -0.0926 ± 0.049 | -0.156 ± 0.11 | -0.0502 ± 0.036 | -0.0185 ± 0.077 | -0.0222 ± 0.054 | -0.104 ± 0.025
16 | Clc1ccc(NN=C(c2ccccc2)c2ccccn2)nc1 | 0.254 ± 0.3 | 0.108 ± 0.15 | 0.0916 ± 0.15 | -0.181 ± 0.17 | 0.266 ± 0.14 | 0.0104 ± 0.024 | -0.0222 ± 0.083 | -0.0715 ± 0.47 | 0.178 ± 0.13 | 0.0303 ± 0.066 | 0.0055 ± 0.072 | -0.153 ± 0.12
17 | NC(=O)c1ccc(-c2nc(-c3ccccn3)c(-c3ccc4c(c3)OCO4)[nH]2)cc1 | 0.385 ± 0.2 | 0.333 ± 0.22 | 0.2 ± 0.17 | 0.0802 ± 0.094 | 0.123 ± 0.11 | 0.325 ± 0.4 | 0.264 ± 0.043 | 0.136 ± 0.2 | 0.0878 ± 0.12 | 0.129 ± 0.16 | 0.158 ± 0.14 | 0.0593 ± 0.11
18 | O=C(NC[C@H]1CN(c2ccc(N3CCOCC3=O)cc2)C(=O)O1)c1ccc(Cl)s1 [Rivaroxaban] | 0.0731 ± 0.13 | 0.168 ± 0.21 | 0.11 ± 0.25 | 0.0254 ± 0.1 | 0.0961 ± 0.14 | 0.0827 ± 0.34 | 0.0113 ± 0.024 | -0.0404 ± 0.088 | 0.0876 ± 0.097 | -0.0347 ± 0.06 | 0.225 ± 0.2 | -0.0428 ± 0.052
19 | O=C(Nc1ccccc1)N1CCN(c2nc(-c3ccccc3)ns2)CC1 | -0.0941 ± 0.39 | -0.262 ± 0.24 | -0.0548 ± 0.33 | -0.145 ± 0.31 | 0.161 ± 0.19 | -0.00452 ± 0.011 | -0.0512 ± 0.05 | -0.058 ± 0.086 | 0.122 ± 0.095 | 0.075 ± 0.16 | 0.103 ± 0.23 | 0.0466 ± 0.14
